Laboratory results from PMC4336329 (PLoS ONE, 2015).
In all, about 310,000 compounds went through this assay and about 14,000 (4.5%) showed an effect of 50% or more. The effect is printed as a negative number. The list shows a part of the results.

These compounds were tested against human ether-à-go-go-related gene (hERG) potassium channel (human, UniProt Q12809) (assay: primary screen, population patch clamp on CHO cells stably expressing hERG).
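Further: peak tail current of the secondary pulse compared with the same well before compound.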

Chain of human ether-à-go-go-related gene (hERG) potassium channel (Q12809 whole entry, looked up): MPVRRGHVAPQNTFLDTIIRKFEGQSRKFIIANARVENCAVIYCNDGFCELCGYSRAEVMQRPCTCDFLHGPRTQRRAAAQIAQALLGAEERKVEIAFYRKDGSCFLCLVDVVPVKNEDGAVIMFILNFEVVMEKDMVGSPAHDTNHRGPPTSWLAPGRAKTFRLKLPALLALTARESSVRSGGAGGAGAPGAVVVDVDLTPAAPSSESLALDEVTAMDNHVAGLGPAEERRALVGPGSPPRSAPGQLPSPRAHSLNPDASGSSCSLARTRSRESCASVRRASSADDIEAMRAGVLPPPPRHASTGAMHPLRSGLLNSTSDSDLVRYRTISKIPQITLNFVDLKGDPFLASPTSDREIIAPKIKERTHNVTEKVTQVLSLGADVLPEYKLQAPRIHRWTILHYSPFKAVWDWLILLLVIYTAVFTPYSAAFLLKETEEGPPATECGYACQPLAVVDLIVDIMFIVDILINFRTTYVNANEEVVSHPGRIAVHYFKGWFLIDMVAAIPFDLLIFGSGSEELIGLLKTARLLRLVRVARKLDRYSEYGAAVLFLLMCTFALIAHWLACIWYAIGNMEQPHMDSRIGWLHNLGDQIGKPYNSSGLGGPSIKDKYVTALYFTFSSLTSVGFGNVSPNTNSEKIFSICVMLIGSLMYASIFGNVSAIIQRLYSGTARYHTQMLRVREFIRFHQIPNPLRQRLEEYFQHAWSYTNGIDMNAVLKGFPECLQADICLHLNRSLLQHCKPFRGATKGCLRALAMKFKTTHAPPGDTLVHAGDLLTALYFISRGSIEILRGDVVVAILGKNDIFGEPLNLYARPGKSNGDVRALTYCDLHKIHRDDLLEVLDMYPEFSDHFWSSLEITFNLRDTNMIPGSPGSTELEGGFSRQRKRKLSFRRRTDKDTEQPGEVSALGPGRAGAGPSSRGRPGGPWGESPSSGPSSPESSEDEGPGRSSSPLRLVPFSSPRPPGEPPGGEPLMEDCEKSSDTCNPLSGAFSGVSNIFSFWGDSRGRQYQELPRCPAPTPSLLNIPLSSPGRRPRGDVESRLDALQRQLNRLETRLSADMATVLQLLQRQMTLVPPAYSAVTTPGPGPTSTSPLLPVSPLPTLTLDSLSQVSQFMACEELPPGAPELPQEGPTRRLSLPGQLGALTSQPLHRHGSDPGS

Structure (SMILES)	hERG current change (%, negative = inhibition) at 10uM [%]
Cc1ccc(C)c(NC(=O)Cn2cnc3c(oc4ccccc43)c2=O)c1	30
COc1ccc(NC(=O)c2cc(OC)c(OC)cc2OC)c(S(=O)(=O)N2CCOCC2)c1	15
O=C(CSc1ncnc2nc[nH]c12)Nc1nnc(SCc2ccc(Cl)c(Cl)c2)s1	11.8
NC(=O)c1ccccc1N1CCCCC1	22.6
CC1CN(C(=O)CCN2C(=O)c3ccccc3C2=O)CC(C)O1 (centres unmarked)	1.96
C1CCC2=NCCCN2CC1	1.88
COc1ccc(C(=O)CSc2nnc(CC(=O)Nc3ccccc3OC)n2C)cc1	-6.15
Cc1cccn2c(=O)c3c(nc12)N1CCCCC1C1(C3)C(=O)N(C)C(=O)N(C)C1=O (centres unmarked)	-7.56
CCN(C(=O)COC(=O)c1cc([N+](=O)[O-])ccc1N1CCOCC1)C1CCCCC1	-33.5
CN(C(=O)CSc1nncn1-c1ccccc1)C1CCS(=O)(=O)C1 (centres unmarked)	4.65
CC(=O)N(CC(C)(C)CC=C(C)C)c1ccccc1	9.08
O=C(O)CN1C(=O)C(=O)N(Cc2c(F)cccc2Cl)C1=O	9.71
CSCCC(NS(=O)(=O)c1ccccc1F)C(=O)NNC(=O)c1csc(N2CCOCC2)n1 (centres unmarked)	12.1
COC(=O)c1sccc1NC(=O)c1ccccc1	12.3
O=C(O)c1nn(CC(=O)N2CCN(c3ccccc3)CC2)c(=O)c2ccccc12	8.36
O=C(Nc1ccccc1)C(Cc1cccs1)c1nn[nH]n1 (centres unmarked)	-0.965
CCc1nnc(NC(=O)c2ccc(NS(=O)(=O)c3ccccc3)cc2)s1	-6.56
CC12CC(NC(=O)N1CCc1ccccc1)c1cc(Cl)ccc1O2 (centres unmarked)	14.4
Cc1cc(C)nc(SCCS(=O)(=O)Cc2ccc(Cl)cc2)n1	0.643
CCOC(=O)C1=CSC2=NS(=O)(=O)CCN12	7.89
CN(C)CCCN(C(=O)c1cccs1)c1nc(-c2ccccc2)cs1	-72.8
O=C(O)C1CCCN1S(=O)(=O)c1ccc2[nH]c(=O)c(=O)[nH]c2c1 (centres unmarked)	9.17
O=C(CSc1nnc(CNc2ccccc2)o1)N1CCN(C(=O)c2ccco2)CC1	-17.3
CCOC(=O)N1CCC(N(CCOC)C(=O)Nc2ccc(Cl)cc2)CC1	-43
NC(=O)N1c2ccccc2C=Cc2ccccc21	6.93
CCN(CC)CC(C)CNC(=O)CC(C(=O)N1CCc2ccccc21)n1ccnc1 (centres unmarked)	2.03
